Source: PubChem BioAssay AID1963576 (National Center for Advancing Translational Sciences (NCATS), 2024)
The whole screen tested about 46,000 compounds, of which about 60 (0.1%) were called active. Roughly 3% stayed inconclusive and do not appear here. Calls come from the whole dose curve; as a rule, active = well fitted inhibition curve with a large enough effect; inconclusive = small, poorly fitted or top-dose-only effect; inactive = no such curve, though single readings can be large or run the other way. This is one part of the list.

Test: Primary qHTS assay for Inhibitors of ovarian cancer metastasis using an organotypic tumor microenvironment (TME) model. Note: nearly all actives have a fitted effect of over 65% in size.
Conditions: SKOV3ip1-GFP adhesion/invasion on 3D omental model, fluorescence; series mostly up to 45.8 µM; activity change, negative = inhibition: at the top concentration
Text: PI: Ernst Lengyel MD., Ph.D. Department of Obstetrics and Gynecology, Section of Gynecologic Oncology University of Chicago Medicine, Chicago, Illinois. The tumor microenvironment (TME) is a key determinant of metastatic efficiency. We performed a quantitative high-throughput screen (qHTS) of diverse medicinal chemistry tractable scaffolds (44,420 compounds) and pharmacologically active small molecules (386 compounds) using a layered organotypic, robust assay representing the ovarian cancer metastatic TME. This 3D model contains primary human mesothelial cells, fibroblasts, and extracellular matrix, to which fluorescently labeled ovarian cancer cells are added. Initially, 100 compounds inhibiting ovarian cancer adhesion/invasion to the 3D model in a dose-dependent manner were identified. Of those, eight compounds were confirmed active in five high-grade serous ovarian cancer cell lines and were further validated in secondary in vitro and in vivo biological assays. […] Specifically, NCGC00117362 and PP-121 inhibited ovarian cancer adhesion, invasion, and proliferation, whereas milciclib inhibited ovarian cancer invasion and proliferation. […] To evaluate the clinical potential of NCGC00117362, structure - activity relationship studies were performed. […] The three compounds identified have promise as therapeutics for prevention and treatment of ovarian cancer metastasis.
PROTOCOL TABLE (as described by Inglese J, Shamu CE and Guy RK. 2007) SEQUENCE No. (e.g., 1, 2, 3, etc.); […] (e.g., Cells, Incubation, Reagent, etc.); VALUE; DESCRIPTION. 1; Cells; 4 uL; primary human omental fibroblast, black, clear bottom, low base, 1536-well Aurora assay plate. 2; Incubation; 48 hr; 37C. 3; Cells; 3 uL; 1,200 SKOV3ip1-GFP cells. 4; Compounds; 23nL; acoustic dispenser. 5; Incubation; 2 hr; room temperature. 6; Incubation; 16 hr; 37C. 7; Wash; 5 uL; 1x PBS. 8; Fixing; 5 uL; 4% paraformaldehyde (PFA). 9; Incubation; 15 min; room temperature 10; Wash, 5 uL; 1x PBS. 11; Detection; Fluorescence, excitation filter 488 nm, emission filter 509 nm. NOTES (numbers refer to Sequence numbers above) 1. For the 1,536-well format, 40 primary human omental fibroblasts and 400 mesothelial cells were seeded with 0.02 µg fibronectin and 0.02 µg collagen type I in 4 µL of growth media (2.3 mm2; Supplementary Fig. S1A). 2. Assay plates were incubated for 48 hours at 37 C. 3. After incubation, 1,200 SKOV3ip1-GFP were seeded in 3 µL of serum-free media (growth media minus FBS) on top of primary human omental cells. 4. Compounds or controls were added to each well immediately after the addition of the cancer cells. Compounds were screened in four doses (0.36-46 µmol/L), and the plates contained the positive control (Tomatine) in eight doses (0.035-75 µmol/L) and DMSO (equal volume controls) 5 - 6. The plates were incubated at room temperature for 2 hours and then at 37 degrees C for 16 hours. 7 - 10. Following incubation, the media were aspirated and each well washed with PBS (5 µL) and then fixed with 4% paraformaldehyde (PFA; 5 µL). After 15 minutes, the PFA solution was aspirated, PBS (5 µL) was added. 11. The number of GFP-labeled cells analyzed using a fluorescent cytometer TTP LabTech Acumen eX3 using 488 nm excitation filter and 509 nm emission filter. Data was normalized to the DMSO treated for negative and Tomatine treated wells for positive control. REFERENCES: Inglese J, Shamu CE and Guy RK, Reporting data from high throughput screening of small molecule libraries, Nature Chemical Biology, 2007, 3(8): 438-441. doi.org/10.1038/nchembio0807-438. Yasgar A, Shinn P, Jadhav A, Auld DS, Michael S, Zheng W, Austin CP, Inglese J and Simeonov A, Compound Management for Quantitative High-Throughput Screening. J. Assoc. Lab. Auto., 2008, 13: 79-89. doi: 10.1016/j.jala.2007.12.004.

Activity change, negative = inhibition, inactive:
Cc1ccccc1NC(=O)c1nc(-c2ccncc2)no1 -7.24%, CCC(C(=O)OCc1cc(=O)n2nc(CCOC)sc2n1)c1ccccc1 (stereo unspecified) -8.7%, Cc1ccc(CNC(=O)CCCCn2c(=O)c3ccccc3n(Cc3ccc(Cl)cc3)c2=O)cc1 23.1%, Cc1nc2sc(C(=O)NCc3ccc(Cl)cc3)c(NC(=O)c3ccccc3)c2c(C)c1C -25.7%, CCOc1cc(C2c3c(oc4ccccc4c3=O)C(=O)N2Cc2ccc3c(c2)OCO3)ccc1O (stereo unspecified) 1.19%, CN(C)CC(=O)N1CCC(c2ccc(NC(=O)c3ncc(C#N)[nH]3)c(C3=CCCCC3)c2)CC1 7.47%, Cc1cc(C)c2c(=O)cc(C(=O)Nc3ccc(S(=O)(=O)Nc4nc(C)cc(C)n4)cc3)oc2c1 -6.61%, Cc1ccc(-c2cn3c(n2)sc2cc(C(=O)N4CCCCC4)ccc23)cc1 -1.17%, Cc1ccc(NC(=O)NCc2cccn2Cc2ccccc2)cc1F 2.31%, COC(=O)C(C)Sc1nc2c([nH]c3ccccc32)c(=O)n1-c1ccc(OC)cc1 (stereo unspecified) -1.08%, CCN(CC)C(=O)CSc1nc2cc3c(cc2c(=O)n1Cc1ccc(C(=O)NCCc2ccc(OC)c(OC)c2)cc1)OCO3 -5.47%, CCOc1ccccc1NC(=O)Cn1c(=O)n(Cc2ccccc2)c(=O)c2c(C)c(C(=O)N(C)C)sc21 2.3%, Cc1cc(Nc2cccc(Cl)c2C)n2nc(Cc3ccccc3)nc2n1 -4.92%, COc1ccc(CNC(=O)CCCn2c(SCC(N)=O)nc3cc4c(cc3c2=O)OCO4)cc1 4.55%, Cc1cc(C)c(NC(=O)Cn2c(=O)n(CCCCC(=O)NCc3ccccc3Cl)c(=O)c3ccccc32)c(C)c1 8.92%, COc1ccc(CNC(=O)c2cnn3c(C)c(Cc4ccc(F)cc4)c(C)nc23)cc1 12.5%, Cc1ccc(OCCSc2nc3ccccc3n2CC(=O)N2CCOCC2)c(C)c1 0.842%, Cc1ccc(Cl)cc1NC(=O)Cn1nc2c(cc1=O)CC(C)CC2 (stereo unspecified) 6.47%, COc1ccc(Cl)c(Cn2c(NCCN)nc3c2c(=O)n(C)c(=O)n3C)c1 -11.1%, COc1ccc(C(=O)NCc2nnnn2-c2ccc(C)c(C)c2)cc1 -3.45%, CC(C)Cn1c(=O)c2ccccc2n2c(-c3cccc(Cl)c3)nnc12 6.98%, O=C(NNc1ncnc2c1cnn2-c1ccccc1)c1cccc(Cl)c1 -6.89%, CCCOc1ccccc1Cn1c(=O)sc2ccccc21 5.88%, Cc1ccc(Cl)cc1Nc1nc2ccccc2n2c(C)nnc12 1.09%, CCc1ccccc1NC(=O)CSc1nnc(-c2nonc2NC(C)=O)n1C 1.69%, CCOc1ccc(NC(=O)N2CCOc3ccccc32)cc1 -0.775%, N#Cc1ccc(-c2cccs2)nc1SCc1ccc(Cl)cc1Cl 0.627%, Cc1ccc(N2CCn3c2nc2c3c(=O)n(CCc3ccccc3)c(=O)n2C)cc1C 4%, Cc1[nH]c(=O)[nH]c(=O)c1C1N2CC3(C(C)C)CN1CC(C(C)C)(C2)C3=O (stereo unspecified) 8.6%, Cc1cc(NS(=O)(=O)c2ccc(NC(=O)COc3ccc(Br)cc3C)cc2)no1 0.627%, CCCCc1nn2c(=O)cc(COC(=O)c3ccccc3NC(=O)C(C)(C)C)nc2s1 1.9%, CN(CCOc1ccc(NS(C)(=O)=O)cc1)CCc1ccc(NS(C)(=O)=O)cc1 -5.46%, O=c1c2oc3ccccc3c2n(Cc2ccc(Cl)cc2)c(=O)n1Cc1ccc2c(c1)OCO2 -3.59%, NC(=O)C1CCN(c2ncnc3c2cnn3-c2ccccc2)CC1 8.6%, Fc1cccc(NCc2ccccc2-c2nnc(-c3ccccc3Cl)o2)c1 -3.63%, Cc1ccc(-n2c3c(c(=O)[nH]c2=O)C(NS(=O)(=O)c2ccc(Cl)cc2)(C(F)(F)F)C(=O)N3)cc1 (stereo unspecified) -0.109%, COc1cccc2c1cc1c(=O)n(CC(=O)N3CCCCC3)nc(C)n12 2.6%, Cc1ccc(C(=O)Nc2ccc(C(=O)O)cc2)cc1S(=O)(=O)Nc1ccccc1 -14.3%, COc1ccc(C)cc1NC(=O)C1CCCN(S(=O)(=O)c2ccc3c(c2)CCCN3C(C)=O)C1 (stereo unspecified) 2.2%, CCC(C)NS(=O)(=O)c1ccc(N2CCCCS2(=O)=O)cc1 (stereo unspecified) -7.06%, CCCCNC(=O)CCCN1C(=O)CCn2nc(-c3cccn3C)cc21 -6.72%, CCOCCCNC(=O)CN1C(=O)c2cccnc2Sc2ccccc21 3.19%, COc1cccc(NC(=O)Cn2c(=O)n(-c3cccc(OC)c3)c(=O)c3sc4ccccc4c32)c1 4.35%, Cc1ccc(Cl)cc1N1CCN(C2(c3ccccc3)C(=O)c3ccccc3C2=O)CC1 -14.2%, CCC(C)(C)NC(=O)C1CCC(CNS(=O)(=O)c2ccc3c(c2)CC(C)N3C(C)=O)CC1 (stereo unspecified) -5.8%, COCCNC(=O)CSc1nc2cc3c(cc2c(=O)n1CCCC(=O)NCCc1ccc(OC)c(OC)c1)OCO3 1.84%, COc1ccc2c(CNCc3ccco3)c(C(=O)O)n(Cc3ccc(F)cc3Cl)c2c1 4.06%, O=C(Cn1c(SCCOc2ccccc2Cl)nc2ccccc21)N1CCOCC1 -14.8%, CCN(CC)CCn1c(=O)c(Cc2ccc(OC)cc2)nc2ccccc21 5.88%

outcome, inactive:
Cc1ccc(-n2ncc(C(=O)Nc3ccc(C)c(F)c3)c2C2CCN(C(=O)OC(C)(C)C)CC2)cc1C, O=C(Nc1ccc2nc(SCC(=O)N3CCCC3)sc2c1)c1ccc(F)cc1, COc1cc(Cl)c(C)cc1NC(=O)c1cn(CC(C)C)c(=O)c2cc(OC)c(OC)cc12, COc1cc(CN(CC2CCCO2)C(=O)c2ccccc2F)cc(OC)c1OC (stereo unspecified), CC(NC(=O)c1ccccc1)c1nc2ccccc2n1Cc1ccc(Cl)cc1 (stereo unspecified), CC(C)OCCCNC(=O)CCCn1c(SCC(=O)c2ccc(Br)cc2)nc2c(sc3ccccc32)c1=O, CCOc1ccc(NC(=O)CN2C(=O)COc3ccc(S(=O)(=O)Nc4ccccc4)cc32)cc1, CCC(=O)N1CCc2cc(Br)cc(S(=O)(=O)N3CCC(C(=O)NC(C)(C)C)CC3)c21, Cc1ccnc(NC(c2ccccc2F)c2ccc3cccnc3c2O)c1 (stereo unspecified), CCOC(=O)c1ccc(NC(=O)CN2C(=O)c3cccnc3Oc3ccc(Cl)cc32)cc1, CCC(CC)C(=O)Nc1nnc(SCc2cc(=O)c3ccccc3[nH]2)s1, Fc1ccccc1N1CCN(c2nnc(C(F)(F)F)c3nnn(Cc4ccccc4)c23)CC1
